# Laboratory results from article PMC4336329 (PLoS ONE, 2015).
# Screen size: about 310,000 compounds; about 14,000 (4.5%) showed an effect of 50% or more. Effects have a minus sign here. The list shows a part of the results.
# Molecular target: human ether-à-go-go-related gene (hERG) potassium channel (human, UniProt Q12809)
# Test: primary screen, population patch clamp on CHO cells stably expressing hERG
# 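Further: peak tail current of the secondary pulse compared with the same well before compound.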
# human ether-à-go-go-related gene (hERG) potassium channel, sequence (Q12809 whole entry, looked up): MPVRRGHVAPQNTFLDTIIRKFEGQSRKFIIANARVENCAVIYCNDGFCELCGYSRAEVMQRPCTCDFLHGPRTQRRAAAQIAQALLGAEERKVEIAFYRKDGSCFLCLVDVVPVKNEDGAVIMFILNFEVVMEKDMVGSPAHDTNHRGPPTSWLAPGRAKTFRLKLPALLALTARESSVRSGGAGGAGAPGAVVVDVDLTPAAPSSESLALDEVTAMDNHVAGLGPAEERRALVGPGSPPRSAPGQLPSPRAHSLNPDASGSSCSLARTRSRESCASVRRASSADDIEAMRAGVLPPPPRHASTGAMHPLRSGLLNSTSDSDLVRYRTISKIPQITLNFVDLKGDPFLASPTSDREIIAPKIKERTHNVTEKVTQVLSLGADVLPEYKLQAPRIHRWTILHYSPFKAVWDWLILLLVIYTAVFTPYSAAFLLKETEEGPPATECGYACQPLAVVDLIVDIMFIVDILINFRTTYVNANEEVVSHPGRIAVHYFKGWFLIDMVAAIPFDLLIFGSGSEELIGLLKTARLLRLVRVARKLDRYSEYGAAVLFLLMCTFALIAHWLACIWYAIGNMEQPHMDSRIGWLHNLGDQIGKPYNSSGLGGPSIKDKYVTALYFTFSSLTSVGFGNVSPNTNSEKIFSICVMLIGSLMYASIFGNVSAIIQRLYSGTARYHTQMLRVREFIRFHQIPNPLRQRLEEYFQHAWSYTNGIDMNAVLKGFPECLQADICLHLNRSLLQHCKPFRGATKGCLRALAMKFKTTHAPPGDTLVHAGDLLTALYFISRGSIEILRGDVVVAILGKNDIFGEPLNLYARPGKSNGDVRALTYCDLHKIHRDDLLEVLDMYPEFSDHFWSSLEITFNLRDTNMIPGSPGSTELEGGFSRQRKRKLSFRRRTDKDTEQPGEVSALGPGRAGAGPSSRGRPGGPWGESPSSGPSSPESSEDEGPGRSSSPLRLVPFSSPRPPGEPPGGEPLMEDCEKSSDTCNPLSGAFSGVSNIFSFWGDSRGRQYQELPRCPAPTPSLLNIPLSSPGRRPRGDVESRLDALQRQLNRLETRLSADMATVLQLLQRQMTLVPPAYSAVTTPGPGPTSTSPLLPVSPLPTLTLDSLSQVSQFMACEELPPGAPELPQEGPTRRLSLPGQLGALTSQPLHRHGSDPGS
row,SMILES,"hERG current change (%, negative = inhibition) at 10uM"
1,Cc1ccc(C(=O)N/N=C/c2ccc3c(c2)OCO3)o1,1.02%
2,CN(C)N(C)C(=O)C(O)(c1ccccc1)c1ccccc1,-2.9%
3,COc1ccc(S(=O)(=O)Nc2ccccc2C(=O)N2CCOCC2)cc1OC,5.3%
4,CC(C)C(=O)NC(=S)Nc1ccccn1,9.1%
5,COc1ccc2c(c1)O[C@H](c1ccc3c(c1)OCO3)[C@@H](OC(=O)N[C@H]1CCCc3ccccc31)C2=O,7.06%
6,Nc1ncnc(Nc2cc(Cl)cc(Cl)c2)c1[N+](=O)[O-],16%
7,CC(C)c1ccc(Nc2ncccc2C#N)cc1,-5.45%
8,O=C(NCC(=O)N1CCN(c2ncccn2)CC1)c1cccs1,-7.28%
9,CCOc1ccc(Br)cc1S(=O)(=O)NC(=O)c1ccccc1,18.3%
10,Cc1ccc(CSCCNS(C)(=O)=O)cc1,13.4%
11,Cc1cc(C)c[n+](CC(=O)c2ccc(NC(=O)c3ccccc3)cc2)c1.[Br-],20.7%
12,COc1ccc(OC)c(/C=N/NC(=O)c2c(C)nc3ccc(C)cn23)c1,10.4%
13,CC(=O)c1c(-c2ccccc2)c2cc(Cl)ccc2n(C)c1=O,-10.6%
14,Cc1noc(/C=C/c2cccnc2)c1[N+](=O)[O-],3.41%
15,CCCN1C(=O)c2ccccc2NC1c1ccc(OC)cc1O (stereo not shown),-10.3%
16,CCN(CC)C(=O)C1CCN(S(=O)(=O)c2ccc3c(c2)CCCN3C(=O)C2CCC2)CC1,5.02%
17,Cc1cc(NC(=O)CCCC(=O)OCC(F)(F)C(F)F)cc(C)c1C(=O)O,20.1%
18,CCC(C)(C)C1CCc2[nH]nc(C(=O)NN)c2C1 (stereo not shown),14.7%
19,Cc1cc(C(=O)OCC(=O)Nc2cccc(S(=O)(=O)N3CCOCC3)c2)c(C)o1,-19.6%
20,COc1cccc(-c2nn(-c3ccccc3)cc2/C=C(/NC(=O)c2ccccc2)C(=O)O)c1,24.1%
21,Cc1cccc2nc(COc3ccc(Cl)c4cccnc34)cn12,-16.7%
22,O=C(Nc1ccc(S(=O)(=O)N2CCOCC2)cc1)c1ccc(CN2CCc3ccccc3C2)cc1,3.89%

row,SMILES,"hERG current change (%, negative = inhibition) at 10uM"
1,CC(C)c1cc(C(=O)Nc2sc3c(c2C#N)CCC3)no1,7.49%
2,O=C(Nc1ccc(S(=O)(=O)N2CCOCC2)cc1)c1cc(S(=O)(=O)N2CCOCC2)ccc1Cl,17.4%
3,Cc1ccc(C(C(=O)Nc2ccc(C(C)C)cc2)N(C)C(=O)c2ccc(=O)[nH]c2)cc1 (stereo not shown),12.6%
4,NC1=C([N+](=O)[O-])C(c2ccc(F)cc2)C2=C(CCCC2=O)O1 (stereo not shown),8.77%
5,CC(=O)Nc1cccc2c1Cc1ccccc1-2,10.8%
6,c1ccc(CN2CCC(Nc3nc(-c4cccnc4)nc4ccccc34)CC2)cc1,-80.5%
7,Cc1cccn2c(=O)c3cc(C(N)=S)c(=N)n(CCCN4CCOCC4)c3nc12,-87.6%
8,COc1cc(C2C(S(=O)(=O)c3ccccc3)CON2C)ccc1OCc1ccc(F)cc1 (stereo not shown),6.66%
9,C/C(=N\NC(=O)c1c(C)nc2ccccn12)c1ccc(O)cc1O,7.77%
10,CCCCNC(=O)Oc1ccc(C(=O)N2c3ccccc3NC(=O)C2C)cc1 (stereo not shown),0.0121%
11,CC1=C(C(=O)OCC2CCCCC2)C(c2cccc(O)c2)NC(=O)N1 (stereo not shown),-9.54%
12,Oc1ccccc1-n1c(-c2ccccc2)ccc1-c1ccccc1,11.8%
13,O=C(Nc1cccc2c1C(=O)NC2=O)c1ccc(N2C(=O)CCC2=O)cc1,7.66%
14,Cc1ccccc1NC(=O)c1c([N+](=O)[O-])c(C(C)(C)C)nn1C,-12.2%
15,Cc1ccc(N2C(=O)N(CC(=O)NCc3ccc(Cl)cc3)C(=O)C2C)cc1 (stereo not shown),-21.3%
16,CC1CCCN(Cc2nc3c(c(=O)n(C)c(=O)n3C)n2CC(N)=O)C1 (stereo not shown),5.82%
17,CS(=O)(=O)N1CCN(C(=O)CSc2ccccc2)CC1,14%
18,Cc1cc(C)cc(NC(=O)CN2CCN(c3ccccn3)CC2)c1,-24.5%
19,CN(C)S(=O)(=O)c1cccc(C(=O)OCC(=O)N2CCCC2=O)c1,20.9%
20,Cc1ccccc1NS(=O)(=O)c1ccc(C(=O)NCC(c2ccccc2)N(C)C)cc1 (stereo not shown),4.97%
21,CC(=O)NS(=O)(=O)c1ccc(NC(=O)c2cccc(S(=O)(=O)N3CCc4ccccc43)c2)cc1,14.1%
